Test results as given in the supplement of paper PMC3334620.
Whole data set: some 33,000 sequences, median “E-score (-0.5 to 0.5)” near -0.035, cut for the highest 2% near 0.35. The list shows a part of the results.

Target: T1, Pdr3 (UniProt P33200)
T1 sequence: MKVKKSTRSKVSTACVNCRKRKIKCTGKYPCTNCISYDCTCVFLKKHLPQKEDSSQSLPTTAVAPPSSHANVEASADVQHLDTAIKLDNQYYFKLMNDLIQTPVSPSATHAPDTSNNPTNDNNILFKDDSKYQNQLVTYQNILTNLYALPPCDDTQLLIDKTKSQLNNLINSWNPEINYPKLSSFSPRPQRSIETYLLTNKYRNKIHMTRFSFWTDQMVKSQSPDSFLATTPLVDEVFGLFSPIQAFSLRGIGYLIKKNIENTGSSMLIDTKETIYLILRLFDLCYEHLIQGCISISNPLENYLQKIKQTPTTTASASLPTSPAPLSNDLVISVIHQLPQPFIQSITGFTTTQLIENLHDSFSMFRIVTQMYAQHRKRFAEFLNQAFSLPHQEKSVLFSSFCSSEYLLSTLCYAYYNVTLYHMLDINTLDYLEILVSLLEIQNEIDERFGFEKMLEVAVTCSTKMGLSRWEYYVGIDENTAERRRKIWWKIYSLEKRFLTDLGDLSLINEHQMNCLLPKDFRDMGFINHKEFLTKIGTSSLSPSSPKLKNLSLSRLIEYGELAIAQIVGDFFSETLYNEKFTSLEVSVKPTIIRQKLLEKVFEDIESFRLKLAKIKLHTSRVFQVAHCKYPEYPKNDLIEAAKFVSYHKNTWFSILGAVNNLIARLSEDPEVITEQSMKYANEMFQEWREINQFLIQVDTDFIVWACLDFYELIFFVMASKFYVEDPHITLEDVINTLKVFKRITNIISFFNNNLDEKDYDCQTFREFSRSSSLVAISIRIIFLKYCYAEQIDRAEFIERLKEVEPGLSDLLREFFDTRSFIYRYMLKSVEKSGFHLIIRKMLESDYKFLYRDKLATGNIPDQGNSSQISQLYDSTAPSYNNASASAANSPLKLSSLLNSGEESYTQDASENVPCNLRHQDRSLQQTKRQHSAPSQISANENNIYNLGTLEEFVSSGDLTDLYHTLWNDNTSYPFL
Test: PBM E-score (8-mer binding enrichment) (E-score (-0.5 to 0.5)); higher = stronger / more preferred TF binding; most listed sequences are background and not binding sites
Conditions: protein concentration: 200 nM; construct: GST-full length
Outline: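 Universal all-10-mer Agilent arrays, double-stranded by primer extension on fresh or once-stripped slides, were probed with about 100-200 nM GST-tagged yeast transcription factors made by PURExpress. Fluorescent anti-GST detected bound protein, and masliner normalised the scans. E-scores from the Universal PBM Analysis Suite were given to each ungapped eight-base word pooled with its reverse complement.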

Sequence	PBM E-score
CAGATACG	0.0207
AAACGCCT	-0.0655
AGATATGA	0.0428
CCACGTCA	-0.131
GATCGTGA	-0.0838
AGATGTTA	-0.202
TGAATTCA	-0.0488
AAAAAGTT	-0.0377
GGACATCA	0.191
CGAGTGAA	0.0402
GAAATGTA	0.16
CGTCTGCA	-0.132
CGCTCAGC	0.0744
ATCAGCGA	-0.0101
CTTATGGA	-0.119
GGTCATAC	0.0319
GCCCCTCA	-0.0822
AACGTGAA	-0.168
CGACACGC	-0.0394
ATCGATCG	0.022
ATGATGGA	-0.00822
AATAGCTC	-0.0712
ACCGGCTG	0.108
CAAGCTTC	-0.149
ACGGAACA	0.477

Sequence	PBM E-score
CCAATAAC	0.0756
CTTACTGC	-0.0466
ACCGCGAA	0.251
GCGACGTA	-0.112
CATACCCC	0.0622
GTTATCAA	-0.196
AGACTTCG	-0.218
ACGCCTAA	-0.145
ACCCCCAA	-0.0272
CGTGAGTC	-0.0549
GCTACGGA	0.218
CAACACGC	-0.127
CGCCCATC	0.166
CGATCTAG	-0.29
ACTCCGAT	0.203
ATGGGCTC	-0.152
AGACCTTG	-0.253
AAACCTCC	-0.0529
AGTTCTGC	0.101
ACTAATAA	0.0661
CGCGTACG	0.0867
AAGCACAC	-0.122
ATCCCGGC	0.419
CTATCGGA	0.318
CAGGCTGG	-0.208

Sequence	PBM E-score
CTAATCCC	0.124
AAACAGCA	0.071
AACAAAGA	-0.0935
CTGGAGTA	-0.206
CTGTGCGA	-0.173
AAAGCGCG	-0.0452
CTAGACCC	-0.129
TGTTTCAA	-0.153
ATTTCCGA	0.338
GCAATATA	-0.0113
AAGTCTGC	-0.233
GAAGTGTA	-0.201
CCTCCGTC	0.15
AATACTAC	-0.103
AGTAGACG	-0.117
ACGCTATC	-0.0579
CGTGTAAG	-0.16
TATGACCA	0.0196
GATTCCAA	-0.0548
GCGTGCCA	-0.0428
ATACTATC	-0.0366
CCCAGGAC	-0.201
CCAGCAGG	-0.23
GTGCGGTA	0.0907
CTTACTCA	-0.0528

Sequence	PBM E-score
AGCTCAAT	0.00244
AGTAGAGC	-0.148
TGTCCGAA	0.305
AGGTTGAG	-0.213
ATAATGAC	-0.123
CTGCGCCA	0.0227
AACTTCGC	0.0133
ACAGGAGC	-0.0735
AACCTCTA	-0.0113
CTGTTTTC	-0.0973
GTAAGGAC	-0.105
GTAACGGA	0.397
AAGAGCTT	0.0876
GTTTAAAC	-0.029
ACAGGACG	-0.179
AACTGGAG	-0.0991
AGGTCTGC	-0.276
ATAGAAAC	-0.00528
AACGTATC	-0.138
CCGGTACC	0.243
CCAAATCA	-0.0208
GGACGTAA	-0.0005
GGGAACTA	0.0485
CACGGAGC	0.374
ACCCCCGA	-0.0135

Sequence	PBM E-score
GCATACCA	0.0165
ACCCATGA	-0.0559
ACGGATGC	0.288
TGGATCAA	-0.168
ATAGACCC	0.154
CAGTCGAC	0.0911
AGTCTGTA	-0.28
GGCTCCAA	-0.0883
AGAGTGGC	-0.131
GATGAAGA	-0.0239
GAGCCCGC	0.222
ATCGCATC	0.121
ATAACGCA	-0.134
GTAGGTAA	-0.11
TAACCACA	-0.227
CCGGAAAG	0.414
TGTAAACA	-0.148
CATCGCTA	-0.101
GGCTAACC	-0.236
GCTCGTCA	-0.159
AAACTAAA	-0.0271
ACAGCTAC	-0.197
CTAATGTA	-0.0347
GAAGAAAC	0.0528
CTCTGACC	-0.166

Sequence	PBM E-score
CTTCTGTC	-0.0447
ACATGTAC	0.0239
CGCATTTC	0.243
CGGGAAAG	0.281
ACGGTCAT	0.163
GAGGCGCA	0.0691
AAGTGCGC	0.144
GTATAAAC	0.0622
CATAAGAA	0.0614
GGAGCCTA	0.14
CTAATAGC	-0.241
AAATAGGC	0.14
ATGTCAAG	-0.185
AGTATGGG	-0.0615
TAAATGGA	-0.0165
GAAGACCC	0.0497
CCCAAATA	-0.132
AATTATAA	0.12
TACCTTGA	0.0326
ATACCGAT	0.136
TAAGAAGA	0.13
AAAGATGC	-0.105
ACCATACT	0.0155
CGACTCCC	-0.14
GCGAACCA	-0.0454

Sequence	PBM E-score
CCACGCAG	-0.11
ATGAAAGG	0.014
ATGCGATC	-0.0108
CATTAATC	-0.0566
GGAGGTCA	-0.0982
AGGACCAT	-0.155
GATCATAA	0.0465
AAACATAC	-0.107
AGTCCTAC	-0.0319
TCGCGGCA	0.174
CCTACGGC	-0.156
CACGACTG	-0.225
ACCGTTGC	0.0446
CGAGCTAC	-0.0374
TACGGTCA	0.0404
AGGTTGCG	-0.311
GGACAACA	0.0863
ACCTTCGA	-0.0301
ACACGACT	-0.0613
CATCGCAA	-0.196
GAACCTGA	-0.131
CAGCTTAA	-0.00551
